Compound in the assay: CCc1nc(-c2cccc(C)c2)c(-c2ccnc(NC(=O)c3ccccc3)c2)s1 [TAK-715]
Briefly: Viability of human cancer cell lines after 72 h of drug (GDSC screen). The conditions noted are these: top dose inferred. The procedure: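 Human cancer cell lines in 384-well plates, medium with 10% serum, drug for 72 h over a 256-fold dose range (nine 2-fold or five 4-fold steps up to the top dose). Adherent lines were fixed and stained with the nucleic acid dye Syto60, suspension lines read with resazurin; signal relative to control wells, capped at 0 and 100%. One two-parameter sigmoid per drug and line, fitted in a mixed model over all curves with the slope shared within a line.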

By IC50 is meant the dose at which the fit gives 50% viability; a limit (>, <) means that the fit lies beyond the doses tested. The AUC spans the tested range (256-fold, ending at the top dose) of the same fit: 1 means no effect, lower means more sensitive. Any top dose called inferred is not printed in the source and was worked back from the curve model.

Drawing on the supplement of paper PMC4967469, this text covers AUC and IC50 for 44 cell lines.

One may read the IC50 as the concentration that gives 50% inhibition. As for “NCI-H520 (lung squamous cell carcinoma, adherent, top dose 20 µM)”, the AUC amounted to 0.931 and the IC50 was more than 20 µM.

“NCI-H522 (lung adenocarcinoma, adherent, top dose 20 µM)”: the AUC worked out at 0.932 and the IC50 was more than 20 µM.

“NCI-H524 (small cell lung carcinoma, suspension, top dose 20 µM)”: the AUC is 0.954 and the IC50 was more than 20 µM.

With “NCI-H526 (small cell lung carcinoma, suspension, top dose 20 µM)”, the AUC was 0.984 and the IC50 is more than 20 µM.

Regarding “NCI-H596 (lung adenocarcinoma, adherent, top dose 20 µM)”, the AUC is 0.981 and the IC50 was more than 20 µM.

In the case of “NCI-H630 (large intestine, adherent, top dose 20 µM)”, the AUC stood at 0.936 and the IC50 was more than 20 µM.

In the case of “NCI-H647 (non-small cell lung carcinoma, adherent, top dose 20 µM)”, the AUC was 0.876 and the IC50 was more than 20 µM.

Regarding “NCI-H650 (lung adenocarcinoma, adherent, top dose 20 µM)”, the AUC was determined as 0.948 and the IC50 was more than 20 µM.

“NCI-H661 (large cell lung carcinoma, adherent, top dose 20 µM)”: the AUC worked out at 0.926 and the IC50 was more than 20 µM.

For the cell line “NCI-H716 (large intestine, suspension, top dose 20 µM)”, the AUC came to 0.902 and the IC50 is more than 20 µM.

In the case of “NCI-H720 (lung carcinoid, suspension, top dose 20 µM)”, the AUC is 0.944 and the IC50 was more than 20 µM.

Consider “NCI-H727 (lung carcinoid, adherent, top dose 20 µM)”, for which the AUC came to 0.932 and the concentration for half-maximal inhibition (IC50) is more than 20 µM.

As for “NCI-H747 (large intestine, adherent, top dose 20 µM)”, the AUC is 0.807 and the IC50 stood at 13.1 µM.

“NCI-H748 (small cell lung carcinoma, suspension, top dose 20 µM)”: the AUC came out at 0.967 and the IC50 is more than 20 µM.

Take “NCI-H810 (large cell lung carcinoma, adherent, top dose 20 µM)”: the AUC amounted to 0.916 and the IC50 was more than 20 µM.

As to “NCI-H838 (lung adenocarcinoma, adherent, top dose 20 µM)”, the AUC worked out at 0.974 and the IC50 is more than 20 µM.

In the case of “NCI-H841 (small cell lung carcinoma, adherent, top dose 20 µM)”, the AUC turned out to be 0.949 and the IC50 is more than 20 µM.

In the case of “NCI-H847 (small cell lung carcinoma, adherent, top dose 20 µM)”, the AUC was 0.939 and the half-inhibitory concentration (IC50) is more than 20 µM.

For the cell line “NCI-H1048 (small cell lung carcinoma, adherent, top dose 20 µM)”, the AUC came to 0.919 and the IC50 is more than 20 µM.

Take “NCI-H1092 (small cell lung carcinoma, suspension, top dose 20 µM)”: the AUC turned out to be 0.936 and the IC50 was more than 20 µM.

Turning to “NCI-H1155 (large cell lung carcinoma, suspension, top dose 20 µM)”, the AUC was determined as 0.913 and the concentration for half-maximal inhibition (IC50) was more than 20 µM.

Regarding “NCI-H1299 (large cell lung carcinoma, adherent, top dose 20 µM)”, the AUC came to 0.98 and the IC50 was more than 20 µM.

In the case of “NCI-H1304 (small cell lung carcinoma, suspension, top dose 20 µM)”, the AUC came to 0.946 and the IC50 was more than 20 µM.

As for “NCI-H1355 (lung adenocarcinoma, adherent, top dose 20 µM)”, the AUC is 0.927 and the IC50 was more than 20 µM.

Regarding “NCI-H1395 (lung adenocarcinoma, adherent, top dose 20 µM)”, the AUC was 0.972 and the IC50 is more than 20 µM.

Take “NCI-H1417 (small cell lung carcinoma, suspension, top dose 20 µM)”: the AUC was found to be 0.843 and the IC50 stood at 18.4 µM.

Take “NCI-H1435 (lung adenocarcinoma, semi-adherent, top dose 20 µM)”: the AUC was 0.976 and the 50% inhibitory concentration (IC50) is more than 20 µM.

Take “NCI-H1436 (small cell lung carcinoma, suspension, top dose 20 µM)”: the AUC was determined as 0.955 and the IC50 was more than 20 µM.

In the case of “NCI-H1437 (lung adenocarcinoma, adherent, top dose 20 µM)”, the AUC is 0.9 and the IC50 is more than 20 µM.

As for “NCI-H1563 (lung adenocarcinoma, adherent, top dose 20 µM)”, the AUC came out at 0.935 and the IC50 was more than 20 µM.

“NCI-H1568 (lung adenocarcinoma, adherent, top dose 20 µM)”: the AUC turned out to be 0.968 and the IC50 was more than 20 µM.

Take “NCI-H1573 (lung adenocarcinoma, adherent, top dose 20 µM)”: the AUC worked out at 0.959 and the IC50 was more than 20 µM.

As to “NCI-H1581 (large cell lung carcinoma, semi-adherent, top dose 20 µM)”, the AUC came out at 0.933 and the IC50 was more than 20 µM.

For “NCI-H1623 (lung adenocarcinoma, adherent, top dose 20 µM)”, the AUC was 0.978 and the half-maximal inhibitory concentration (IC50) is more than 20 µM.

Regarding “NCI-H1648 (lung adenocarcinoma, adherent, top dose 20 µM)”, the AUC stood at 0.934 and the IC50 was more than 20 µM.

As for “NCI-H1651 (lung adenocarcinoma, adherent, top dose 20 µM)”, the AUC was 0.983 and the 50% inhibitory concentration (IC50) is more than 20 µM.

In the case of “NCI-H1666 (lung adenocarcinoma, semi-adherent, top dose 20 µM)”, the AUC came to 0.986 and the IC50 is more than 20 µM.

Regarding “NCI-H1688 (small cell lung carcinoma, adherent, top dose 20 µM)”, the AUC is 0.917 and the IC50 is more than 20 µM.

As to “NCI-H1693 (lung adenocarcinoma, adherent, top dose 20 µM)”, the AUC amounted to 0.967 and the IC50 was more than 20 µM.

In the case of “NCI-H1694 (small cell lung carcinoma, suspension, top dose 20 µM)”, the AUC worked out at 0.927 and the IC50 is more than 20 µM.

For the cell line “NCI-H1703 (lung adenocarcinoma, adherent, top dose 20 µM)”, the AUC amounted to 0.926 and the IC50 is more than 20 µM.

As for “NCI-H1734 (lung adenocarcinoma, adherent, top dose 20 µM)”, the AUC is 0.964 and the IC50 was more than 20 µM.

On to “NCI-H1755 (lung adenocarcinoma, adherent, top dose 20 µM)”, for which the AUC came to 0.943 and the IC50 was more than 20 µM.

For “NCI-H1770 (non-small cell lung carcinoma, suspension, top dose 20 µM)”, the AUC is 0.954 and the IC50 was more than 20 µM.
